# The other results are listed elsewhere or left out.
# B1: Neuropilin-1 (Homo sapiens), O14786 (protein)
# chain: FKCMEALGMESGEIHSDQITASSQYSTNWSAERSRLNYPENGWTPGEDSYREWIQVDLGLLRFVTAVGTQGAISKETKKKYYVKTYKIDVSSNGEDWITIKEGNKPVLFQGNTNPTDVVVAVFPKPLITRFVRIKPATWETGISMRFEVYGCKITDYPCSGMLGMVSGLISDSQITSSNQGDRNWMPENIRLVTSRSGWALPPAPHSYINEWLQIDLGEEKIVRGIIIQGGKHRENKVFMRKFKIGYSNNGSDWKMIMDDSKRKAKSFEGNNNYDTPELRTFPALSTRFIRIYPERATHGGLGLRMELLGCEVE
# What was measured:
# Assay in all cases: glycan array binding signal (z-score within array); higher = stronger binding
# Conditions in all cases: glycan notation: IUPAC condensed, linker removed
# [1] = target: GlcNAc(a1-4)Gal(b1-3)GlcNAc
# In short: (§1)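 Glycan array data came from 3228 arrays in the Consortium for Functional Glycomics database, and only arrays with an available protein sequence were kept. Glycan names were put into IUPAC-condensed notation, and columns mapping to the same glycan were averaged. The binding signal is a within-array Z-score, averaged across arrays of one protein sequence run at different concentrations or buffers and across linkers. A negative Z-score can be read as non-binding.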
# [2] = target: GlcNAc(a1-4)Gal(b1-4)GalNAc
# In short: as §1
# [3] = target: GlcNAc(a1-4)Gal(b1-4)GlcNAc
# In short: as §1
# [4] = target: GlcNAc(a1-4)Gal(b1-4)GlcNAc(b1-3)Gal(b1-4)Glc
# In short: as §1
# [5] = target: GlcNAc(a1-4)Gal(b1-4)GlcNAc(b1-3)Gal(b1-4)GlcNAc
# In short: as §1
# [6] = target: GlcNAc(a1-4)Gal(b1-4)GlcNAc(b1-3)Gal(b1-4)GlcNAc(b1-3)Gal(b1-4)GlcNAc
# In short: as §1
# [7] = target: GlcNAc(a1-4)Gal(b1-4)GlcNAc(b1-3)Gal(b1-4)[Fuc(a1-3)]GlcNAc(b1-3)Gal(b1-4)[Fuc(a1-3)]GlcNAc
# In short: as §1
# [8] = target: GlcNAc(a1-6)Gal(b1-4)GlcNAc
# In short: as §1
# [9] = target: GlcNAc(b1-2)Gal(b1-3)GalNAc
# In short: as §1
# [10] = target: GlcNAc(b1-2)Man(a1-3)[GlcNAc(b1-2)Man(a1-6)]Man(b1-4)GlcNAc(b1-4)GlcNAc
# In short: as §1
# [11] = target: GlcNAc(b1-2)Man(a1-3)[GlcNAc(b1-2)Man(a1-6)]Man(b1-4)GlcNAc(b1-4)[Fuc(a1-6)]GlcNAc
# In short: as §1
# GlcNAc(b1-3)Gal = target: GlcNAc(b1-3)Gal
# In short: as §1
# [12] = target: GlcNAc(b1-3)Gal(b1-3)GalNAc
# In short: as §1
# GlcNAc(b1-3)Gal(b1-4)Glc = target: GlcNAc(b1-3)Gal(b1-4)Glc
# In short: as §1
# [13] = target: GlcNAc(b1-3)Gal(b1-4)GlcNAc
# In short: as §1
# [14] = target: GlcNAc(b1-3)Gal(b1-4)GlcNAc(b1-3)Gal(b1-4)GlcNAc
# In short: as §1
# GlcNAc(b1-3)GalNAc = target: GlcNAc(b1-3)GalNAc
# In short: as §1
# GlcNAc(b1-3)Man = target: GlcNAc(b1-3)Man
# In short: as §1
# [15] = target: GlcNAc(b1-3)[GlcNAc(b1-4)][GlcNAc(b1-6)]GlcNAc
# In short: as §1
# [16] = target: GlcNAc(b1-3)[GlcNAc(b1-6)]Gal(b1-4)GlcNAc
# In short: as §1
# [17] = target: GlcNAc(b1-3)[GlcNAc(b1-6)]GalNAc
# In short: as §1
# [18] = target: GlcNAc(b1-4)Gal(b1-4)GlcNAc
# In short: as §1
# GlcNAc(b1-4)GlcNAc = target: GlcNAc(b1-4)GlcNAc
# In short: as §1
# [19] = target: GlcNAc(b1-4)GlcNAc(b1-4)GlcNAc
# In short: as §1
# [20] = target: GlcNAc(b1-4)GlcNAc(b1-4)GlcNAc(b1-4)GlcNAc(b1-4)GlcNAc
# In short: as §1
# [21] = target: GlcNAc(b1-4)GlcNAc(b1-4)GlcNAc(b1-4)GlcNAc(b1-4)GlcNAc(b1-4)GlcNAc
# In short: as §1
# [22] = target: GlcNAc(b1-4)[GlcNAc(b1-6)]GalNAc
# In short: as §1
# [23] = target: GlcNAc(b1-6)Gal(b1-4)GlcNAc
# In short: as §1
# GlcNAc(b1-6)GalNAc = target: GlcNAc(b1-6)GalNAc
# In short: as §1
# GlcNAc3Prop(b1-4)GlcNAc = target: GlcNAc3Prop(b1-4)GlcNAc
# In short: as §1
# [24] = target: GlcNAc6S(b1-3)Gal(b1-4)GlcNAc
# In short: as §1
# Kdn(a2-3)Gal(b1-3)GalNAc = target: Kdn(a2-3)Gal(b1-3)GalNAc
# In short: as §1
# Kdn(a2-3)Gal(b1-3)GlcNAc = target: Kdn(a2-3)Gal(b1-3)GlcNAc
# In short: as §1
# Kdn(a2-3)Gal(b1-4)Glc = target: Kdn(a2-3)Gal(b1-4)Glc
# In short: as §1
# Kdn(a2-3)Gal(b1-4)GlcNAc = target: Kdn(a2-3)Gal(b1-4)GlcNAc
# In short: as §1
# [25] = target: Kdn(a2-3)Gal(b1-4)[Fuc(a1-3)]GlcNAc
# In short: as §1
# Kdn(a2-6)Gal(b1-4)GlcNAc = target: Kdn(a2-6)Gal(b1-4)GlcNAc
# In short: as §1
# [26] = target: Man(a1-2)Man(a1-2)Man(a1-3)Man
# In short: as §1
binder,measurement,setting,value
B1,glycan array binding signal (z-score),[1],0.182
same,glycan array binding signal (z-score),[2],1.27
same,glycan array binding signal (z-score),[3],-0.244
same,glycan array binding signal (z-score),[4],-0.22
same,glycan array binding signal (z-score),[5],-0.004
same,glycan array binding signal (z-score),[6],-0.23
same,glycan array binding signal (z-score),[7],2.38
same,glycan array binding signal (z-score),[8],-0.248
same,glycan array binding signal (z-score),[9],-0.307
same,glycan array binding signal (z-score),[10],-0.176
same,glycan array binding signal (z-score),[11],0.048
same,glycan array binding signal (z-score),GlcNAc(b1-3)Gal,-0.326
same,glycan array binding signal (z-score),[12],0.019
same,glycan array binding signal (z-score),GlcNAc(b1-3)Gal(b1-4)Glc,0.136
same,glycan array binding signal (z-score),[13],-0.298
same,glycan array binding signal (z-score),[14],-0.333
same,glycan array binding signal (z-score),GlcNAc(b1-3)GalNAc,-0.296
same,glycan array binding signal (z-score),GlcNAc(b1-3)Man,-0.288
same,glycan array binding signal (z-score),[15],-0.223
same,glycan array binding signal (z-score),[16],-0.286
same,glycan array binding signal (z-score),[17],-0.265
same,glycan array binding signal (z-score),[18],-0.203
same,glycan array binding signal (z-score),GlcNAc(b1-4)GlcNAc,-0.215
same,glycan array binding signal (z-score),[19],-0.26
same,glycan array binding signal (z-score),[20],-0.269
same,glycan array binding signal (z-score),[21],-0.218
same,glycan array binding signal (z-score),[22],-0.237
same,glycan array binding signal (z-score),[23],-0.229
same,glycan array binding signal (z-score),GlcNAc(b1-6)GalNAc,-0.297
same,glycan array binding signal (z-score),GlcNAc3Prop(b1-4)GlcNAc,-0.142
same,glycan array binding signal (z-score),[24],-0.282
same,glycan array binding signal (z-score),Kdn(a2-3)Gal(b1-3)GalNAc,-0.206
same,glycan array binding signal (z-score),Kdn(a2-3)Gal(b1-3)GlcNAc,-0.21
same,glycan array binding signal (z-score),Kdn(a2-3)Gal(b1-4)Glc,-0.206
same,glycan array binding signal (z-score),Kdn(a2-3)Gal(b1-4)GlcNAc,-0.083
same,glycan array binding signal (z-score),[25],0.116
same,glycan array binding signal (z-score),Kdn(a2-6)Gal(b1-4)GlcNAc,-0.021
same,glycan array binding signal (z-score),[26],-0.181

# Source: the supplement of paper PMC8728848
